Data published in paper PMC4336329 (PLoS ONE, 2015).
The campaign covered roughly 310,000 compounds. About 14,000 (4.5%) showed an effect of 50% or more. Effects have a minus sign here. Some of the results follow.

Target: human ether-à-go-go-related gene (hERG) potassium channel (human, UniProt Q12809)
Test: primary screen, population patch clamp on CHO cells stably expressing hERG
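Further: peak tail current of the secondary pulse compared with the same well before compound.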

Sequence of human ether-à-go-go-related gene (hERG) potassium channel (Q12809 whole entry, looked up): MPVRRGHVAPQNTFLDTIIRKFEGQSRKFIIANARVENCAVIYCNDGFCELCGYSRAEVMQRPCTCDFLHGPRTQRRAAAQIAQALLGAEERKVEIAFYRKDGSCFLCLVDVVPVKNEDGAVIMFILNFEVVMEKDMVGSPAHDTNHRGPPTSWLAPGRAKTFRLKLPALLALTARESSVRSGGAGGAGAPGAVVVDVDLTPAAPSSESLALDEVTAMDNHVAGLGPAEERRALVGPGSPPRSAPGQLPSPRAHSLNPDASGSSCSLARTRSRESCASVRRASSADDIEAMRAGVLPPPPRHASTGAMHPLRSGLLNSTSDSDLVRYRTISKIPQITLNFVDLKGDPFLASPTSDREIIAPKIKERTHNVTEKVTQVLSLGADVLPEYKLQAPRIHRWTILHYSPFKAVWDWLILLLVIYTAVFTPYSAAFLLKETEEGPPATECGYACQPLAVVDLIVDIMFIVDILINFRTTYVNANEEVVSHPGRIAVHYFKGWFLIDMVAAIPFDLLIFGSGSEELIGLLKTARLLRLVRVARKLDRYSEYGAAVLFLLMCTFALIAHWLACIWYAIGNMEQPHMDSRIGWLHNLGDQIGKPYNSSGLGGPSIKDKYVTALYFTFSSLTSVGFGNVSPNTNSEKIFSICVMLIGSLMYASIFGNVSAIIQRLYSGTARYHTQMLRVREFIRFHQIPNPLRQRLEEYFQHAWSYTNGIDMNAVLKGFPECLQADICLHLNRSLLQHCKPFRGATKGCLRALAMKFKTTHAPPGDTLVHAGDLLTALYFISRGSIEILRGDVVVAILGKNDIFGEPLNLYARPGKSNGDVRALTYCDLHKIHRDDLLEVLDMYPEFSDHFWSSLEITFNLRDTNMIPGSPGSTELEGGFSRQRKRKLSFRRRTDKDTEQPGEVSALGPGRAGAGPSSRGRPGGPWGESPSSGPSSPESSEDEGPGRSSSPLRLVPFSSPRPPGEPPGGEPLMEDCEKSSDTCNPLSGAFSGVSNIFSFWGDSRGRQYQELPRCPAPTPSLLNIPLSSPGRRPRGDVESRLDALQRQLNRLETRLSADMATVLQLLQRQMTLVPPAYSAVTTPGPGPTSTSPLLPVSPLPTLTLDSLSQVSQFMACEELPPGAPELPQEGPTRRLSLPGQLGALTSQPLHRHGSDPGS

Structure (SMILES)	hERG current change (%, negative = inhibition) at 10uM
CC/C(=N\NC(=O)c1ccc2c(c1)OCO2)c1ccccc1	14.8%
COc1ccc(NC(=O)CSCc2cc(=O)n3nc(C4CC4)sc3n2)cc1	7.96%
COc1cc(OC)cc(C(=O)N2CCN(Cc3ccccc3[N+](=O)[O-])CC2)c1.O=C(O)C(=O)O	-46.5%
CN(Cc1ccc(Cl)cc1Cl)C(=O)CNC(=O)c1ccc2c(c1)OCO2	-26.3%
O=C1CNC(=O)/C1=C/c1ccc(O)cc1	18.6%
CCn1c(=O)c2cc(C(=O)Nc3ccccc3OC)sc2c2ccccc21	7.74%
CC(C)COC(=O)c1ccc(NC(=O)C2C3CCC(C3)C2C(=O)O)cc1 (stereo not shown)	7.41%
COc1ccc(C(=O)N2CCN(C(=O)C3COc4ccccc4O3)CC2)cc1 (stereo not shown)	-26.7%
O=C(O)COc1ccc(NC(=O)c2ccco2)cc1	-4.51%
CSCCC(NC(=O)c1ccco1)C(=O)N1CCCC(C(F)(F)F)C1 (stereo not shown)	-14.9%
COc1ccc(CCC(=O)OC(C)C(=O)c2ccc(C)cc2)cc1 (stereo not shown)	0.769%
CCOC(=O)Cc1ccc(NCc2ccc(Cl)cc2)cc1.Cl	12.7%
COc1ccc(N(CC(=O)Nc2cccc(C(=O)O)c2)S(=O)(=O)c2c(C)noc2C)cc1	-0.655%
COc1cc(NC(=O)COC(=O)/C=C/c2c(C)nn(-c3ccc(F)cc3)c2Cl)cc(OC)c1	8.33%
CCOC(=O)CN1NC2(CCCC(C)C2)NC1=S (stereo not shown)	16.8%
Cc1ccc(NC(=S)NCCN(C2CCCCC2)C2CCCC2)cc1	-72%
C=CCSc1ncccc1C(=O)NCCc1ccccc1	5.37%
COc1ccc(O)c(CN2CCCC(C(=O)c3sccc3C)C2)c1 (stereo not shown)	9.89%
O=C1CN=C(c2ccc(Br)cc2)c2oc3ccccc3c2N1	6.88%
CCOC(=O)c1cnc2ccc(OCC)cc2c1N(C)Cc1ccccc1	-11.9%
Cl.O=C(CCCN1CCC(O)(c2cccc(C(F)(F)F)c2)CC1)c1ccc(F)cc1	-75.6%
CCN1CCN(CCCNC(=O)Cn2cc3c(n2)CCCC3)CC1	16.4%
COc1ccc2nc(Nc3nc(C)c(C(C)=O)s3)sc2c1	7.16%
CCOC(=O)CSc1cc(CS(=O)c2ccc(Cl)cc2)nc(-c2ccccc2)n1 (stereo not shown)	-49.3%
COc1ccccc1NC(=S)N(Cc1ccc(C(=O)O)cc1)Cc1ccc(OC)c(OC)c1	6.54%
